Laboratory results as given in PubChem BioAssay (Tox21).
Several values for one entry are separate records, joined by “and”; a condition that tells them apart may be missing. Equal values may be shown once. The shares of active, inactive and inconclusive entries below differ from those in the screen. Potencies beside an inconclusive call are fits to weak or partial responses and may not hold up. Activity calls are given as the source filed them. The call rests on the fitted dose curve; in most records, active means well fitted inhibition curve with a large enough effect in the repeat runs; inconclusive means weak or mixed curves; inactive means no such curve, though single readings can be large or run the other way.

The molecules below were run against Cytochrome P450 3A4 (Homo sapiens) (UniProt P08684) (assay: Cytochrome P450 Family 3 Subfamily A Member 4 (CYP3A4) small molecule antagonists: luciferase reporter qHTS assay (AID 1671201; further: nearly all actives have a fitted effect of over 50% in size)). Settings: P450-Glo CYP3A4 enzyme, luciferin luminescence, 1 h; series mostly up to 115 µM; activity change, negative = inhibition: at the top concentration.
Sequence of UniProt P08684 (P08684 whole entry, looked up): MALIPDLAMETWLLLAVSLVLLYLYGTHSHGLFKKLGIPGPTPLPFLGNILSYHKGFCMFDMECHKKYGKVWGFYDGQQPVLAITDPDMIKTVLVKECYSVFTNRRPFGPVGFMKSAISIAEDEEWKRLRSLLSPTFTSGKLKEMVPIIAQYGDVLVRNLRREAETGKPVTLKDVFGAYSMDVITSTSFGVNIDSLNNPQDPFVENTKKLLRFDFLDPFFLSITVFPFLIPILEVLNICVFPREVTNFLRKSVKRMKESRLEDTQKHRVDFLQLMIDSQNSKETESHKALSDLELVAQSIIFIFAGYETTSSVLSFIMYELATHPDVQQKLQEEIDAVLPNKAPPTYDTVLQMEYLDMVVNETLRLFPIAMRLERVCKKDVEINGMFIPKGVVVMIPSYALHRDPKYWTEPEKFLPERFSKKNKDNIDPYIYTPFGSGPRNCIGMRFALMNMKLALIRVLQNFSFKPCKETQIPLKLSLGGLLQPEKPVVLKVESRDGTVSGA
In short: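 CYP3A4 activity was followed with a P450-Glo proluciferin substrate. Test compounds in DMSO were preincubated 10 min; NADPH regeneration then ran 1 h, and light output was read 20 min after detection reagent.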
On the % scale 0 is the no-effect control and ±100 the full control effect; potency means the concentration at half of the fitted maximal effect; tags describe the fitted curve by direction and shape.

| Structure (SMILES) | Potency | activity change, negative = inhibition |
| --- | --- | --- |
| CCCN(CCC)c1c([N+](=O)[O-])cc(S(C)(=O)=O)cc1[N+](=O)[O-] | active: 20 µM | – |
| O=[N+]([O-])/N=C1\NCCN1Cc1ccc(Cl)nc1 | inactive | – |
| Cc1ccc(N)cc1Cl | inconclusive: 32.1 µM [inhibitor, partial curve, poor fit] and inconclusive: 56.4 µM [inhibitor, partial curve] | – |
| CCN(CC)C(=O)C(C)Oc1cccc2ccccc12 (centres undefined) | inconclusive: 2.85 µM [inhibitor, full curve] and active: 6.33 µM | – |
| N#CCC#N | inconclusive: 28.3 µM [inhibitor, full curve] | – |
| C[C@H]1[C@H](c2ccc(Cl)cc2)SC(=O)N1C(=O)NC1CCCCC1 | active: 7.96 µM | – |
| CCCC(Cn1cncn1)c1ccc(Cl)cc1Cl (centres undefined) | – | inactive: -10.7% |
| CCCCN(N=O)C(=N)N[N+](=O)[O-] | inconclusive: 81.4 µM [inhibitor, partial curve, poor fit] | – |
| Cc1cc(Cl)ccc1N | inconclusive: 16.3 µM [inhibitor, partial curve] and inconclusive: 49.1 µM [inhibitor, partial curve] and inconclusive: 44.8 µM [inhibitor, partial curve] | – |
| CC(O)(CS(=O)(=O)c1ccc(F)cc1)C(=O)Nc1ccc(C#N)c(C(F)(F)F)c1 (centres undefined) | active: 2.33 µM | – |
| CCN(CCO)CCO | – | inactive: 4.17% |
| O=C(NCO)NCO | – | inactive: 5.85% |
| CCN(CC)c1nc(C)cc(OP(=S)(OC)OC)n1 | active: 2.24 µM | – |
| CC(C)(OO)c1ccccc1 | inconclusive: 31.7 µM [inhibitor, full curve] | – |
| COC(=O)/C=C(\C)OP(=O)(OC)OC | – | inactive: 0.871% |
| CCCN(CCC)c1c([N+](=O)[O-])cc(C(C)C)cc1[N+](=O)[O-] | inconclusive: 24.7 µM [inhibitor, partial curve] and inconclusive: 35.6 µM [inhibitor, partial curve] | – |
| Nc1ccccc1C(=O)Oc1ccc2ccccc2c1 | – | inactive: -20.2% |
| C#CCC1=C(C)C(OC(=O)C2C(C=C(C)C)C2(C)C)CC1=O (centres undefined) | active: 8.88 µM | – |
| N#CC(CCc1ccc(Cl)cc1)(Cn1cncn1)c1ccccc1 (centres undefined) | active: 0.0633 µM | – |
